In the supplement of paper PMC11741623:
This is one part of the list. Interaction screen of human proteins with wild-type SARS-CoV-2 proteins by split-DHFR complementation in yeast, 1 µg/mL methotrexate. Value = fitness of the pair (three or more lineages) minus that of the viral protein without a human partner, on a scale set by negative (0) and fused positive (1) controls, mean of up to three cultures; higher = more likely to interact. Active = false discovery rate below 0.05 (one-sided t-test) in at least one culture. Nearly all pairs are not hits, and differences among them are mostly noise (correlation between cultures about 0.3); most hits were seen in one culture only. Human sequences are the Swiss-Prot entries looked up by gene name; the clone may be another isoform. NSP2 values were corrected by the authors for a growth advantage. Listed are human proteins with a hit and a random twelfth of the others.

How the values were obtained:
Assay in all cases: yeast fitness gain over the viral ORF with no human partner (scaled fitness); higher = more likely to interact
SARS-CoV-2 M = target: SARS-CoV-2 M
Experimental: (§1)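 Split mouse DHFR complementation in pooled diploid yeast: human ORFeome clones carry one fragment and viral ORFs the other; barcoded lineages compete in 1 µg/mL methotrexate and fitness is read by barcode sequencing in up to three cultures.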

SARS-CoV-2 NSP1 = target: SARS-CoV-2 NSP1
Experimental: as §1

SARS-CoV-2 NSP12 = target: SARS-CoV-2 NSP12
Experimental: as §1

SARS-CoV-2 NSP13 = target: SARS-CoV-2 NSP13
Experimental: as §1

SARS-CoV-2 NSP16 = target: SARS-CoV-2 NSP16
Experimental: as §1

SARS-CoV-2 NSP2 = target: SARS-CoV-2 NSP2
Experimental: as §1

SARS-CoV-2 NSP5 = target: SARS-CoV-2 NSP5
Experimental: as §1

SARS-CoV-2 NSP8 = target: SARS-CoV-2 NSP8
Experimental: as §1

SARS-CoV-2 ORF10 = target: SARS-CoV-2 ORF10
Experimental: as §1

SARS-CoV-2 ORF3A = target: SARS-CoV-2 ORF3A
Experimental: as §1

SARS-CoV-2 ORF3B = target: SARS-CoV-2 ORF3B
Experimental: as §1

SARS-CoV-2 ORF6 = target: SARS-CoV-2 ORF6
Experimental: as §1

SARS-CoV-2 ORF7A = target: SARS-CoV-2 ORF7A
Experimental: as §1

SARS-CoV-2 ORF7B = target: SARS-CoV-2 ORF7B
Experimental: as §1

SARS-CoV-2 ORF8 = target: SARS-CoV-2 ORF8
Experimental: as §1

SARS-CoV-2 ORF9B = target: SARS-CoV-2 ORF9B
Experimental: as §1

[1] = target: SARS-CoV-2 ORF9Bwu (the 73-codon ORF)
Experimental: as §1

SARS-CoV-2 S = target: SARS-CoV-2 S
Experimental: as §1

SARS-CoV-2 N = target: SARS-CoV-2 N
Experimental: as §1

SARS-CoV-2 NSP10 = target: SARS-CoV-2 NSP10
Experimental: as §1

SARS-CoV-2 NSP14 = target: SARS-CoV-2 NSP14
Experimental: as §1

SARS-CoV-2 NSP15 = target: SARS-CoV-2 NSP15
Experimental: as §1

SARS-CoV-2 NSP6 = target: SARS-CoV-2 NSP6
Experimental: as §1

SARS-CoV-2 NSP7 = target: SARS-CoV-2 NSP7
Experimental: as §1

SARS-CoV-2 NSP4 = target: SARS-CoV-2 NSP4
Experimental: as §1

Measured: yeast fitness gain

B1: GCM1, Q9NP62 (protein)
chain: MEPDDFDSEDKEILSWDINDVKLPQNVKKTDWFQEWPDSYAKHIYSSEDKNAQRHLSSWAMRNTNNHNSRILKKSCLGVVVCGRDCLAEEGRKIYLRPAICDKARQKQQRKRCPNCDGPLKLIPCRGHGGFPVTNFWRHDGRFIFFQSKGEHDHPKPETKLEAEARRAMKKVNTAPSSVSLSLKGSTETRSLPGETQSQGSLPLTWSFQEGVQLPGSYSGHLIANTPQQNSLNDCFSFSKSYGLGGITDLTDQTSTVDPMKLYEKRKLSSSRTYSSGDLLPPSASGVYSDHGDLQAWSKNAALGRNHLADNCYSNYPFPLTSWPCSFSPSQNSSEPFYQQLPLEPPAAKTGCPPLWPNPAGNLYEEKVHVDFNSYVQSPAYHSPQEDPFLFTYASHPHQQYSLPSKSSKWDFEEEMTYLGLDHCNNDMLLNLCPLR
inactive: SARS-CoV-2 M -0.0347 | SARS-CoV-2 NSP1 = 0.0437 | SARS-CoV-2 NSP12 = 0.109 | SARS-CoV-2 NSP13 = 0.0397 | SARS-CoV-2 NSP16 = -0.0418 | SARS-CoV-2 NSP2 = -0.257 | SARS-CoV-2 NSP5 = 0.00161 | SARS-CoV-2 NSP8 = -0.086 | SARS-CoV-2 ORF10 = -0.135 | SARS-CoV-2 ORF3A -0.102 | SARS-CoV-2 ORF3B 0.0145 | SARS-CoV-2 ORF6 = -0.084 | SARS-CoV-2 ORF7A -0.103 | SARS-CoV-2 ORF7B 0.0394 | SARS-CoV-2 ORF8 = -0.185 | SARS-CoV-2 ORF9B 0.00777 | [1] -0.198 | SARS-CoV-2 S 0.0138

B2: HBZ, P02008 (protein)
chain: MSLTKTERTIIVSMWAKISTQADTIGTETLERLFLSHPQTKTYFPHFDLHPGSAQLRAHGSKVVAAVGDAVKSIDDIGGALSKLSELHAYILRVDPVNFKLLSHCLLVTLAARFPADFTAEAHAAWDKFLSVVSSVLTEKYR
inactive: SARS-CoV-2 M -0.0187 | SARS-CoV-2 NSP12 = 0.124 | SARS-CoV-2 NSP13 = 0.124 | SARS-CoV-2 NSP16 = 0.059 | SARS-CoV-2 NSP2 = 0.126 | SARS-CoV-2 NSP5 = -0.211 | SARS-CoV-2 ORF3B -0.106 | SARS-CoV-2 ORF6 = 0.0481 | SARS-CoV-2 ORF7B -0.367 | SARS-CoV-2 ORF8 = 0.0237 | SARS-CoV-2 ORF9B 0.0135 | SARS-CoV-2 S 0.0825

B3: C15orf40, Q8WUR7 (protein)
chain: MLRLRSGLRHLRATPNTRGSARLLCAEMPKKAGATTKGKSQSKEPERPLPPLGPVAVDPKGCVTIAIHAKPGSKQNAVTDLTAEAVNVAIAAPPSEGEANAELCRYLSKVLELRKSDVVLDKGGKSREKVVKLLASTTPEEILEKLKKEAKKT
inactive: SARS-CoV-2 M -0.0668 | SARS-CoV-2 N -0.0433 | SARS-CoV-2 NSP1 = -0.101 | SARS-CoV-2 NSP10 = -0.0627 | SARS-CoV-2 NSP12 = -0.00459 | SARS-CoV-2 NSP13 = -0.00539 | SARS-CoV-2 NSP14 = 0.0274 | SARS-CoV-2 NSP15 = 0.0125 | SARS-CoV-2 NSP2 = 0.0131 | SARS-CoV-2 NSP5 = -0.0272 | SARS-CoV-2 NSP6 = -0.0346 | SARS-CoV-2 NSP7 = 0.0249 | SARS-CoV-2 NSP8 = -0.0187 | SARS-CoV-2 ORF10 = -0.0231 | SARS-CoV-2 ORF3A -0.231 | SARS-CoV-2 ORF3B 0.00953 | SARS-CoV-2 ORF6 = 0.00387 | SARS-CoV-2 ORF7A -0.0428 | SARS-CoV-2 ORF7B -0.0361 | SARS-CoV-2 ORF9B 0.0123 | SARS-CoV-2 S -0.0701

B4: CCDC50, Q8IVM0 (protein)
chain: MAEVSIDQSKLPGVKEVCRDFAVLEDHTLAHSLQEQEIEHHLASNVQRNRLVQHDLQVAKQLQEEDLKAQAQLQKRYKDLEQQDCEIAQEIQEKLAIEAERRRIQEKKDEDIARLLQEKELQEEKKRKKHFPEFPATRAYADSYYYEDGGMKPRVMKEAVSTPSRMAHRDQEWYDAEIARKLQEEELLATQVDMRAAQVAQDEEIARLLMAEEKKAYKKAKEREKSSLDKRKQDPEWKPKTAKAANSKSKESDEPHHSKNERPARPPPPIMTDGEDADYTHFTNQQSSTRHFSKSESSHKGFHYKH
inactive: SARS-CoV-2 M -0.0192 | SARS-CoV-2 NSP1 = 0.118 | SARS-CoV-2 NSP10 = 0.0548 | SARS-CoV-2 NSP12 = -0.0147 | SARS-CoV-2 NSP13 = 0.022 | SARS-CoV-2 NSP14 = -0.00609 | SARS-CoV-2 NSP15 = 0.0932 | SARS-CoV-2 NSP2 = -0.0709 | SARS-CoV-2 NSP4 = -0.693 | SARS-CoV-2 NSP5 = 0.0543 | SARS-CoV-2 NSP6 = 0.0165 | SARS-CoV-2 NSP7 = 0.0435 | SARS-CoV-2 NSP8 = 0.0108 | SARS-CoV-2 ORF10 = -0.00335 | SARS-CoV-2 ORF3A 0.0749 | SARS-CoV-2 ORF3B -0.0221 | SARS-CoV-2 ORF6 = -0.00483 | SARS-CoV-2 ORF7A -0.0185 | SARS-CoV-2 ORF7B 0.00914 | SARS-CoV-2 ORF8 = -0.0152 | SARS-CoV-2 ORF9B -0.0514 | SARS-CoV-2 S 0.0628

B5: NUDT10, Q8NFP7 (protein)
chain: MKCKPNQTRTYDPEGFKKRAACLCFRSEREDEVLLVSSSRYPDRWIVPGGGMEPEEEPGGAAVREVYEEAGVKGKLGRLLGVFEQNQDPKHRTYVYVLTVTELLEDWEDSVSIGRKREWFKVEDAIKVLQCHKPVHAEYLEKLKLGGSPTNGNSMAPSSPDSDP
inactive: SARS-CoV-2 M -0.0191 | SARS-CoV-2 NSP1 = -0.0158 | SARS-CoV-2 NSP10 = 0.00385 | SARS-CoV-2 NSP12 = -0.0667 | SARS-CoV-2 NSP13 = -0.0243 | SARS-CoV-2 NSP14 = 0.114 | SARS-CoV-2 NSP15 = -0.141 | SARS-CoV-2 NSP16 = 0.0379 | SARS-CoV-2 NSP2 = 0.129 | SARS-CoV-2 NSP4 = -0.0606 | SARS-CoV-2 NSP5 = 0.0286 | SARS-CoV-2 NSP6 = 0.0319 | SARS-CoV-2 NSP7 = 0.0238 | SARS-CoV-2 NSP8 = -0.0569 | SARS-CoV-2 ORF10 = 0.0211 | SARS-CoV-2 ORF3A 0.102 | SARS-CoV-2 ORF3B -0.0378 | SARS-CoV-2 ORF6 = 0.0397 | SARS-CoV-2 ORF7A 0.123 | SARS-CoV-2 ORF7B 0.0142 | SARS-CoV-2 ORF8 = -0.0501 | SARS-CoV-2 ORF9B -0.0237 | [1] 0.00827 | SARS-CoV-2 S 0.0337
